# The other results are listed elsewhere or left out. The full chains were built here from the parent and the listed change. Inactive controls read about 0.05.
# B1: TEV protease; numbered along this chain (parent)
# chain: MGESLFKGPRDYNPISSSICHLTNESDGHTTSLYGIGFGPFIITNKHLFRRNNGTLVVQSLHGVFKVKDTTTLQQHLVDGRDMIIIRMPKDFPPFPQKLKFREPQREERICLVTTNFQTKSMSSMVSDTSCTFPSGDGIFWKHWIQTKDGQCGSPLVSTRDGFIVGIHSASNFTNTNNYFTSVPKNFMELLTNQEAQQWVSGWRLNADSVLWGGHKVFMVKPEEPFQPVKEATQL
# Variants of: B1
# Experiment: raw area under fraction-flipped curve 0-4 h after induction (AUC4h, not background-subtracted), DNA-recorder readout of cleavage of the substrate (dimensionless); higher = more cleavage of the substrate by the protease variant
# Conditions: temperature: 34 °C; time window: 0-4 h after rhamnose induction
# Description: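 In vivo DNA recorder in E. coli TOP10(DE3) ΔrhaA at 34 °C. Each TEVp single-site mutant (parent TEVp 0) is paired with a single-site variant of the 7-mer TEVs (canonical ENLYFQ|S). The substrate sits between flexible linkers in a Bxb1-sfGFP-TEVs-SsrA fusion, so cleavage stabilises Bxb1 and speeds flipping of a recombination array, read by NGS. The value is the raw area under the fraction-flipped curve over 0-4 h after rhamnose induction (AUC4h), with ≥20 reads per time point. It is not background-subtracted; inactive controls average about 0.047.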
# 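Further: Bxb1 expression induced with 0.2% (w/v) L-rhamnose at OD600 near 0.5, cultures sampled hourly, flipped fraction per protease–substrate barcode pair counted by paired-end Illumina sequencing.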
Variant,area with substrate EALYFQS,area with substrate ECLYFQS,area with substrate EDLYFQS,area with substrate EELYFQS,area with substrate EFLYFQS,area with substrate EGLYFQS,area with substrate EILYFQS,area with substrate EKLYFQS,area with substrate ELLYFQS,area with substrate EMLYFQS,area with substrate EPLYFQS,area with substrate EQLYFQS,area with substrate ERLYFQS,area with substrate ESLYFQS,area with substrate EVLYFQS,area with substrate EWLYFQS,area with substrate EYLYFQS,area with substrate ETLYFQS,area with substrate EHLYFQS
H47I,0.0649,0.054,0.0555,0.065,0.0607,0.0496,0.0475,0.0592,0.0584,0.0604,0.0519,0.0614,0.0711,0.0615,0.0564,0.0725,,,
F41V,0.0995,0.0957,,0.107,0.12,0.0996,0.0978,0.108,0.0858,,0.101,0.0889,0.0948,0.101,0.0813,0.0864,0.0858,,
Q74E,0.145,0.0958,0.0866,,0.0836,0.103,,0.0647,,0.119,,0.126,0.1,0.104,0.0862,,0.0931,0.122,
S60E,0.0657,0.0527,0.0624,0.0588,,,0.0561,0.0577,0.0555,,,0.0398,,0.0605,0.059,0.0384,0.0494,0.0598,
S60Y,0.102,0.114,,,,,0.101,0.097,0.0814,,,0.12,0.119,0.117,0.0874,,0.0978,,
F38A,0.0889,0.0943,0.0806,,,,0.0783,0.0858,0.0573,0.0851,,0.0873,,0.053,0.0528,,,0.0875,0.0792
F38M,0.0923,0.0875,0.117,0.107,,0.0783,0.0736,0.0933,0.0774,0.0995,0.109,0.099,0.0899,0.0884,0.0847,0.0923,0.0829,,0.0724
F38L,0.0945,0.0872,0.0877,0.101,,0.0734,0.0762,0.102,0.0679,0.105,0.103,0.113,0.0871,0.0848,0.0679,,0.0907,0.0784,0.0863
T55Y,0.0982,0.0815,,,,0.0879,0.0649,,,,0.1,,0.0846,0.0777,,,0.0787,,0.057
H76S,0.112,0.0965,0.106,0.121,0.0853,0.0592,0.124,0.101,0.0984,0.126,,0.116,0.112,0.108,,0.0799,0.0903,0.118,
H76I,0.1,0.0691,,,0.0775,0.0605,,0.034,,,0.0986,0.0899,0.0669,0.0894,0.0905,0.103,,,
I36L,0.136,,0.137,0.146,,0.081,0.102,0.118,0.0914,0.1,0.143,0.133,,0.119,0.104,0.0858,0.105,,0.105
I42N,0.0492,,,0.073,,0.0492,,,0.0586,0.0485,0.0516,,0.0589,0.0514,0.0451,,,,0.0179

# Source: the supplement of paper PMC12217912
